Measurements reported in PubChem BioAssay AID493208 (National Center for Advancing Translational Sciences (NCATS), 2011).
Hit rate of the full screen: of about 44,000 compounds, about 340 (0.77%) were called active. Roughly 5% stayed inconclusive and do not appear here. Calls follow the shape of the dose curve; as a rule, active = well fitted inhibition curve with a large enough effect; inconclusive = small, poorly fitted or top-dose-only effect; inactive = flat fitted curve, though single readings scatter. This is one part of the list.

assay: Acumen qHTS Assay for Inhibitors of the mTORC1 Signaling Pathway in MEF (Tsc2-/-, p53-/-) Cells: Sytravon; conditions: phospho-rpS6 immunofluorescence/PI, 24 h; series mostly up to 38.3 µM; activity change, negative = inhibition: at the top concentration;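 also: plate controls were DMSO for no effect and rapamycin for full effect; nearly all actives have a fitted effect of over 50% in size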
Summary of the method: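 Tsc2-/-, p53-/- MEFs (empty-vector stable line) in DMEM + 10% FBS were treated with compounds 24 h at 37 degree Celsius, fixed, and immunostained for phospho-rpS6 (Alexa-488) with propidium iodide counterstain. Laser-scanning cytometry gave % positive cells, normalized against 7.5 nM rapamycin and DMSO.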

Structure (SMILES) | activity change, negative = inhibition
CCOc1ccccc1NC(=O)c1c(NC(=O)Cc2ccccc2)sc2c1CCCC2 | inactive: 8.31%
Cn1cc(C(=O)N2CCN(c3cccc(Cl)c3)CC2)c(=O)c2cc(S(=O)(=O)N3CCCC3)ccc21 | inactive: -13.1%
COc1ccc(C)cc1NC(=O)CN1CCCN(S(=O)(=O)c2ccc(Br)cc2)CC1 | inactive: -6.56%
CCOc1ccc(NC(=O)CSc2ccc3ccccc3n2)cc1 | inactive: 8.04%
COC(=O)c1cc(OC)c(OC)c(OC)c1NC(=O)c1cc(=O)n(C)c(=O)n1C | inactive: -6.63%
COCCCNC(=O)CN1C(=O)COc2ccc(S(=O)(=O)N3CCOCC3)cc21 | inactive: 1.92%
COC(=O)CSCc1nc(-c2ccc(C(=O)OC)cc2)oc1C | inactive: 0%
O=C(CCNS(=O)(=O)c1cccc2nonc12)Nc1ccc(F)cc1 | inactive: -16.1%
COC(=O)c1cccc(Nc2c(-c3ccc(O)cc3)nc3nc[nH]n23)c1 | inactive: -0.295%
COc1ccc(N2CCN(C(=O)c3cn(C4CCCCC4)c(=O)c4c3c3ccccc3n4C)CC2)cc1 | inactive: -4.28%
Cc1cccc(C)c1NC(=O)N1CCC(C(N)=O)(N2CCCCC2)CC1 | inactive: -2.84%
O=C(Nc1ccc(F)cc1F)c1cc2ccc3cccnc3c2[nH]1 | inactive: 0.699%
Cc1ccccc1Nc1cc(C(=O)NC2CCC(C)CC2)c2ccccc2n1 (stereo not given) | inactive: -8.84%
CCOC(=O)c1ccc(NC(=O)c2c(NCc3cccc(OC)c3)sc3c2CCC3)cc1 | inactive: -13.3%
CC(C)c1ccc(C(=O)Nc2ccc(-c3nc4ccccc4s3)c(Cl)c2)cc1 | inactive: 0.798%
COc1cccc(-n2c(-c3ccco3)nc3c(cnn3-c3ccccc3C)c2=O)c1 | inactive: -2.29%
COc1ccc(-c2nc(Cn3c(SCc4cccc(F)c4)nc4cccnc43)c(C)o2)cc1 | inactive: 7.93%
Cn1cc(S(=O)(=O)N2CCCCCC2)cc1C(=O)Nc1ccccc1F | inactive: 3.08%
COc1cccc(C(=O)NCC(c2ccc(N(C)C)cc2)N2CCc3ccccc32)c1OC (stereo not given) | inactive: 10.8%
COc1ccc2oc(-c3ccc(C)c(NC(=O)c4sc5ccccc5c4Cl)c3)nc2c1 | inactive: 0.158%
Cc1cccc(OCC(=O)Nc2c(C(=O)N3CCN(c4ccccc4)CC3)oc3ccccc23)c1 | inactive: 1.02%
COc1ccc(N2CCN(c3oc(-c4ccccc4C)nc3S(=O)(=O)c3ccccc3)CC2)cc1 | inactive: -8.21%
CCCCN(CCCC)S(=O)(=O)c1ccc(C(=O)Nc2sc3c(c2C(N)=O)CCN(CC)C3)cc1 | inactive: 4.92%
COc1cc(NC(=O)Cn2nc(Cc3cccnc3)c3ccccc3c2=O)cc(OC)c1OC | inactive: -23%

Structure (SMILES) | activity change, negative = inhibition
Cc1cccc(CSc2nc3ccncc3n2Cc2ccc(C(=O)O)cc2)c1 | inactive: -5.66%
O=C(Nc1ccc(-c2cn3cccnc3n2)cc1)c1ccccc1F | inactive: 0.0433%
Cc1ccc(OCc2ccc(-c3nc(C#N)c(N4CCN(c5cccc(Cl)c5)CC4)o3)o2)cc1 | inactive: -3.77%
CCOc1ccccc1CNC(=O)CCCn1nc(C)c2sc3ccccc3c2c1=O | inactive: 1.93%
CC1=C(C(=O)Nc2cccc(Cl)c2)C2(CCCCCC2)OC1=O | inactive: 0.616%
COc1cc(NC(=O)Cn2nc(C(F)(F)F)c3c2CCCC3)cc(OC)c1OC | inactive: -24.3%
CCC1CN(C(=O)N2CCC(C(=O)NCCCc3ccccc3)CC2)c2ccccc2O1 (stereo not given) | inactive: -2.22%
CN(C)c1ccc(CNC(=O)Cn2c(=O)oc3cc(S(=O)(=O)NCc4ccccc4)ccc32)cc1 | inactive: -8.35%
CCCC12CN3CC(C)(CN(C1)C3c1cn(CC)c3ccccc13)C2=O (stereo not given) | inactive: 2.64%
CCOC(=O)c1c(C)[nH]c(CCC(=O)Nc2ccccc2OCC)c1C | inactive: 0.697%
COc1ccc2oc(=O)cc(CN3CCN(c4ccccc4OC)CC3)c2c1 | inactive: 0.0994%
COCCCNC(=O)CSc1nc(-c2ccc(OC)cc2)[nH]c1-c1ccc(OC)cc1 | inactive: -10.6%
CCC(=O)N1c2ccccc2CC1C(=O)NCCN1CCN(c2cccc(Cl)c2)CC1 (stereo not given) | inactive: 0%
CC(=O)N1CCCc2cc(S(=O)(=O)N3CCC(C(=O)NCc4ccccc4Cl)CC3)ccc21 | inactive: -20.5%
O=C(NCc1ccccc1Cl)c1ccc2nc(Cc3ccccc3)oc2c1 | inactive: 0.902%
COc1ccc(CNC(=O)c2ccc(CS(=O)(=O)c3ccc(OC)cc3)o2)cc1 | inactive: -0.898%
Cc1nn(CCC(=O)N2CCN(c3ccccc3F)CC2)c(C)c1S(=O)(=O)N1CCCC1 | inactive: 1.05%
COc1ccc(C(=O)Nc2cc3cc(Cl)ccc3oc2=O)cc1OC | inactive: 0.168%
CC(=O)N1c2ccc(S(=O)(=O)NCc3ccc(Cl)cc3)cc2CC1C (stereo not given) | inactive: -20.4%
CCN(CC)C(=O)c1sc2c(c1C)c(=O)n(-c1ccc(OC)cc1OC)c(=O)n2Cc1cc(C)ccc1C | inactive: -2.34%
COc1cccc(-c2nn(C)c3sc(C(=O)NCc4ccc(C)cc4)cc23)c1 | inactive: 1.88%
CCOC(=O)c1cc(S(=O)(=O)NCc2ccc(F)cc2)[nH]n1 | inactive: -10.9%
Cc1ccc(-c2nc(C)c(CCNC(=O)C(=O)Nc3ccc(C)c(Cl)c3)s2)cc1 | inactive: -2.98%
CC(=O)Nc1ccccc1OCc1cc(=O)n2c(C)csc2n1 | inactive: 3.97%

Structure (SMILES) | activity change, negative = inhibition
CCN(CCCNC(=O)CSc1cc(=O)n(C)c2cc(Cl)ccc12)c1ccccc1 | inactive: -0.181%
COc1ccc(CN(C)c2ccc(-c3nc(C)no3)cc2[N+](=O)[O-])cc1 | inactive: 0.934%
Cc1ccc(NC(=O)CSc2ncc3c(n2)-c2ccccc2N(C)S3(=O)=O)c(Cl)c1 | inactive: 1.62%
Cc1cc(=O)n2nc(N3CCC(C(=O)NCc4ccccc4F)CC3)sc2n1 | inactive: -3.18%
CN1CCN(CCNC(=O)c2cnn(-c3cccc(Cl)c3)c2C2CCN(C(=O)OC(C)(C)C)CC2)CC1 | inactive: 3.75%
CCc1ccc(CNC(=O)Cn2nc(C)c3c(C)n(-c4ccc(C)cc4)nc3c2=O)cc1 | inactive: 2.07%
CCC(CC)C(=O)Nc1cccc(-c2nc3ncccn3c2C)c1 | inactive: -23.2%
Cc1c(Cl)cccc1NC(=O)c1cc(-c2cccs2)on1 | inactive: -4.72%
CCOC(=O)c1c(C)[nH]c(C)c1S(=O)(=O)N(C)CC(=O)Nc1cccc(Cl)c1C | inactive: 5.75%
Cc1ccc(NCc2cccn2-c2nnc(N3CCC(C(=O)NCc4ccccc4C)CC3)s2)cc1 | inactive: -1.15%
COc1ccc(CN2CCCN(CC(=O)Nc3ccc(Br)cc3F)S2(=O)=O)cc1 | inactive: 0%
Cc1ccc(-n2ncc(C(=O)NCc3ccc4c(c3)OCO4)c2C2CCN(C(=O)OC(C)(C)C)CC2)cc1C | inactive: -4.5%
Cc1c(C(=O)N2CCC(C)CC2)c(S(=O)(=O)Nc2cccc(C#N)c2)c(C)n1C | inactive: 0%
CCOc1ccc(NC(=O)CC2Nc3cccc4cccc(c34)NC2=O)cc1 (stereo not given) | inactive: -0.955%
CC1=C(c2ccc(C)c(C)c2)S(=O)(=O)N=C1N1CCN(c2cccc(C)c2)C(C)C1 (stereo not given) | inactive: 1.46%
COc1ccc(C(=O)N2CCCCC2CCN2CCOCC2)cc1 (stereo not given) | inactive: 5.42%
CC(C)Sc1ncc(Cl)c(C(=O)Nc2nc3ccc(S(C)(=O)=O)cc3s2)n1 | inactive: 3.46%
Cc1cc(-c2ccc(S(=O)(=O)Nc3cccc(C(F)(F)F)c3)s2)on1 | inactive: -15.7%
CCOC(=O)c1ccc(NC(=O)C2=C(C)C(=O)OC23CCCCCC3)cc1 | inactive: -19.8%
CN(C(=O)CSc1nc2ccc(NC(=O)COc3ccc(F)cc3)cc2s1)c1ccccc1 | inactive: -19.5%
Cc1cc(C)c(NC(=O)C2CCN(C(=O)N3CC(C)Oc4ccc(Cl)cc43)CC2)c(C)c1 (stereo not given) | inactive: 0.0257%
COc1ccc(NC(=O)c2cc3c(=O)n(Cc4cccs4)ccc3nc2C)c(OC)c1 | inactive: -7.52%
COc1ccc(NC(=O)Cn2c(=O)n(Cc3nc(C)no3)c(=O)c3cc4c(cc32)OCO4)cc1 | inactive: -6.09%
Cc1ccc(-c2nc3cc(Cl)ccc3o2)cc1NC(=O)c1cc2ccccc2o1 | inactive: 5.97%

Structure (SMILES) | activity change, negative = inhibition
Cc1c(C(=O)N(C)C)sc2c1c(=O)n(-c1ccccc1C(F)(F)F)c(=O)n2Cc1ccccc1C#N | inactive: -4.77%
CC(C)Cc1nn2c(=O)cc(COC(=O)c3cccc(NC(=O)c4cccs4)c3)nc2s1 | inactive: 0%
COc1ccc(-c2nsc(NC(=O)COc3ccccc3OC)n2)cc1 | inactive: 1.45%
Cc1ccccc1Cn1c(=O)n(CC2CCC(C(=O)N3CCC(C)CC3)CC2)c(=O)c2sccc21 (stereo not given) | inactive: -22.9%
COc1ccccc1CNC(=O)CCCn1c(=O)c2ccccc2n(CC(=O)Nc2ccc(C)cc2Cl)c1=O | inactive: -24.9%
Cn1c(=O)n(Cc2ccccc2Cl)c(=O)c2c1nc1n2CCN1c1ccccc1 | inactive: 6.89%
COc1cccc(CNC(=O)CSc2cc(C)[nH]c(=O)n2)c1 | inactive: -4.81%
Cc1c(Cl)cccc1NC(=O)CSc1nc(=O)n(Cc2ccncc2)c2c1CCC2 | inactive: -3.48%
Cc1ccc(C(=O)COC(=O)CCCC(=O)Nc2cc(C(F)(F)F)ccc2Cl)cc1C | inactive: 7.42%
COc1ccc(C(=O)NCc2ccc3c(c2)CCN3C(C)=O)cc1OC | inactive: 0.837%
Cc1oc(-c2ccc(C(=O)NCCCOC(C)C)cc2)nc1CS(=O)(=O)c1ccccc1 | inactive: -6.03%
CCn1ccc2cc(S(=O)(=O)N3CCCN(C(=O)Nc4ccc(C)cc4Cl)CC3)ccc21 | inactive: 2.64%
Cc1cc(Nc2ccccc2F)n2nc(Cc3ccc(Cl)cc3)nc2n1 | inactive: 1.22%
Cc1cccc(NC(=O)CSc2ncc3c(n2)-c2cc(Cl)ccc2N(C)S3(=O)=O)c1C | inactive: -19.2%
CC(=O)N1CCN(C(=O)C(=O)Nc2c3c(nn2-c2ccc(Cl)cc2)CSC3)CC1 | inactive: -5.93%
CCc1ccc(OCC(=O)Nc2cc3oc4ccccc4c3cc2OC)c(Br)c1 | inactive: 1.04%
CCOc1ccc2c(c1)c(=O)c(S(=O)(=O)c1ccc(CC)cc1)cn2CC | inactive: -2.88%
COc1ccc(-c2nnc(SCC(=O)N3CCCCC3)o2)cc1 | inactive: -12.5%
CCOc1ccccc1-c1noc(CSc2nnc(-c3ccncc3)n2-c2ccc(F)cc2)n1 | inactive: 2.19%
CC1CCN(C(=O)CN2c3ccc(Br)cc3-c3ccccc3S2(=O)=O)CC1 | inactive: -8.44%
O=C(COc1ccccc1)Nc1c(C(=O)N2CCN(c3ccc(F)cc3)CC2)oc2ccccc12 | inactive: 7.32%
O=C1CC(c2ccccc2)Cc2[nH]c(=O)c(C(=O)Nc3ccc(F)cc3)cc21 (stereo not given) | inactive: 0%
CCOc1ccc(CCNC(=O)CCCc2nnc3n(CCCOC)c(=O)c4sccc4n23)cc1 | inactive: 3.18%
